One test concerns the target BaCa-KO-Fc (LALA)-S267E. Put plainly: ELISA. (ELISA stands for enzyme-linked immunosorbent assay.)
The next test concerns the target BaCa-WT-Fc (LL)-S267E. Description: ELISA.

For 2 molecules, Kd results are on record in patent publication US20200283537A1 (published 2020).

As usually defined, the Kd is the concentration at which binding is half-saturated.

B1: rDR5 (Fc fusion)
chain: ITQQDLAPQQRAAPQQKRSSPSEGLCPPGHHISEDGRDCISCKYGQDYSTHWNDLLFCLRCTRCDSGEVELSPCTTTRNTVCQCEEGTFREEDSPEMCRKCRTGCPRGMVKVGDCTPWSDIECVHKESGGGSGGS[human IgG4 Fc with S228P R409K (EU numbers) omitted here]
For the molecule B1, the Kd in the test with BaCa-KO-Fc (LALA)-S267E is 1.69 nM; in the test with BaCa-WT-Fc (LL)-S267E it was 1.39 nM.

B2: rFOLR1 (Fc fusion)
chain: RIAWARTELLNVCMNAKHHKEKPGPEDKLHEQCRPWRKNACCSTNTSQEAHKDVSYLYRFNWNHCGEMAPACKRHFIQDTCLYECSPNLGPWIQQVDQSWRKERVLNVPLCKEDCEQWWEDCRTSYTCKSNWHKGWNWTSGFNKCAVGAACQPFHFYFPTPTVLCNEIWTHSYKVSNYSRGSGRCIQMWFDPAQGNPNEEVARFYAAAGGSGGS[human IgG4 Fc with S228P R409K (EU numbers) omitted here]
As to B2, the Kd was determined as 0.801 nM with BaCa-KO-Fc (LALA)-S267E and 0.596 nM with BaCa-WT-Fc (LL)-S267E.
